In PubChem BioAssay (NCI):
“And” between values parts separate entries of the source, which are not always exact repeats. Equal values may be shown once.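 48-hour exposure; five concentrations; linearly interpolated endpoints. Here, GI50 denotes the concentration required for 50% inhibition of growth. TGI: concentration producing complete growth inhibition.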 Square brackets hold non-standard residues; d marks the D form. Peptide text beside a SMILES is read from it. * marks the point of attachment. Phe(F5) = N[CH](Cc1c(F)c(F)c(F)c(F)c1F)C(=O)O; Cbz = O=C(OCc1ccccc1)*; OBn = c1ccc(CO*)cc1

tested on: NCI-H322M lung; assay: growth of human tumour cells (NCI), 48 h

SMILES	TGI	GI50
COc1ccc(/C=C(\Cl)c2ccc(OC)c(OC)c2)cc1OC	> 100 µM	–
C[C@@]12C=CC3C/C(=N\C(N)=S)C=C(CCCC4OCCO4)[C@]3(CC1)C2 (stereo not given in full)	42.1 µM	–
COC(=O)C(CC(C)C)NC(=O)C(Cc1cnc[nH]1)NC(=O)CNC(=O)C(NC(=O)C(C)NC(=O)C(Cc1c[nH]c2ccccc12)NC(=O)C(CCC(=O)O)NC(=O)C(N)Cc1c(F)c(F)c(F)c(F)c1F)C(C)C (stereo not given) (H-[Phe(F5)]EWAVGHL-OMe; configuration not given here)	> 100 µM	> 100 µM
CCOC(=O)c1cc(Sc2ccc(N)c(C(=O)OCC)c2)ccc1N	> 100 µM	–
CN1CCc2c1nc(-c1ccccc1)c1c2N(C)CC1	> 100 µM	–
COc1cc2c(cc1OC)-c1[nH]c3ccc(C#N)cc3c1CC(=O)N2	> 100 µM	–
COC(=O)N1C[C@@]2(C=CC3(CC2)OCCO3)c2ccccc21	> 100 µM	–
COc1cc(NC(C)=O)c2[nH]c3c(C)cc(NC(C)=O)c(C)c3c2c1	> 100 µM	–
O=C1NC(N2CCOCC2)=N/C1=C\c1cccs1	> 100 µM	–
O=P(O)(OCC(O)O)OCC(O)O	> 100 µM	–
CCCCCC(=O)Nc1n[nH]nc1C(N)=O	> 100 µM	–
C=C(c1ccccc1)C1ON(C)CCc2cc(OC)c(OC)cc21 (stereo not given)	> 100 µM	–
Fc1ccc(-c2nc3n(c2-c2ccncc2)CCS3)cc1	> 25 µM	> 25 µM
c1csc(-c2cscc2-c2ccsc2)c1	> 100 µM	–
CCc1c(C)[nH]c(/C=C2\N=C(c3ccc[nH]3)C=C2OC)c1C	17.6 µM	2.21 µM
CC(=O)OC1c2ccccc2CC2(OC(C)=O)c3ccccc3C12 (stereo not given)	> 100 µM	–
CCCCCCn1c(SCC)c2ccccc2c1-c1nc(F)nc(F)n1	> 100 µM	–
O=c1c2cc(S(=O)(=O)Nc3ccccc3Cl)ccc2ncn1NS(=O)(=O)c1ccc(Br)cc1	> 37.5 µM	–
C=CCC(N[C@H](CO)C(C)C)c1cn(C(=O)OCC)c2ccccc12 (stereo not given in full)	> 100 µM	25.3 µM
CCCC(O)[C@@H](O)c1ccc2c(c1O)C(=O)c1c(OC)cccc1C2=O (stereo not given in full)	> 100 µM	–
O=C1c2cc3c(cc2CC12Cc1cc4c(cc1C2=O)CCCC4)CCCC3	> 100 µM	–
CC1=CC(=O)c2c(O)cccc2C1=O	30 µM	–
CCN(CC)CCOc1ccc(C(=C(C)c2ccc(Cl)cc2)c2ccc(OCCN(CC)CC)cc2)cc1	2.3 µM	0.801 µM
O=C(CCn1[nH]c(=O)c(Cl)c(Cl)c1=O)NOCCCc1ccccc1	> 100 µM	–

SMILES	TGI	GI50
CCOC(=O)C(c1c[nH]c2ccccc12)(c1c[nH]c2ccccc12)c1c[nH]c2ccccc12	90.6 µM	–
Clc1cccc(Cl)c1C=NC12CC3CC(CC(C3)C1)C2	> 10 µM	–
Cn1c(O)c(C(=O)Nc2cccs2)c(=O)[nH]c1=S	52.1 µM	–
O=C(NCCCCCCNC(=O)c1cccc2ccccc12)c1cccc2ccccc12	> 100 µM	–
COc1cc(/C=C\c2ccccn2)cc(OC)c1OC	> 100 µM	–
Fc1cc(C2=C[C@H](c3ccc(Cl)cc3)NC(=S)N2)c(Cl)cc1Cl	> 100 µM	–
CSc1nnc(CCSc2ccnc3c(C(F)(F)F)cccc23)o1	> 100 µM	> 100 µM
Nc1ncnc2sc(=S)c3c(c12)CCC3	> 100 µM	40.6 µM
CC[C@](C)(O)C(=O)O[C@H]1C(=O)O[C@@H]2C[C@H]3C(C)=CC(=O)[C@@H](O)[C@]3(C)[C@H]3[C@@]4(O)OC[C@]32[C@@H]1[C@@H](C)[C@H]4O	18.8 µM and 2.88 µM	0.371 µM
N#CC(C#N)=CN1CCN(C(=O)c2ccco2)C1=S	37.7 µM	15.5 µM
CCOC(=O)c1c2c(n(CC(C)C)c1C)-c1nc[nH]c1C(=O)C2=O	28.9 µM	15.6 µM
O=C(O)CSSCC(=O)O	> 100 µM	–
COc1cc(S(=O)(=O)Nc2ccc(-c3csc(N4C(=O)CSC4c4cccs4)n3)cc2)ccc1Cl (stereo not given)	> 100 µM	–
CC1=C/C(=N\OCC(=O)O)CC(c2ccc(C(C)C)cc2)C1 (stereo not given)	> 100 µM	–
CCN1C(=O)N(CC)C2C1NN=c1s/c(=C3\C(=O)N(C(C)C)c4ccccc43)c(=O)n12 (stereo not given)	> 100 µM	0.795 µM
NC(=O)C(Nc1c(Cl)cccc1Cl)c1cc2cc(Br)ccc2nc1Cl (stereo not given)	> 100 µM	–
CCCN(Cc1ccc(F)cc1)c1ccc(CO)c(Cl)c1	20.5 µM	7.17 µM
CCOC(C[C@H](O)[C@H]1COC(=S)S1)OCC	> 100 µM	–
O=c1n(/N=C/c2ccccc2)c(=O)n2n1C1C=CC2CC1	> 100 µM	–
CC1Oc2cc3c(-c4c(O)cc(O)c5c(O)c6c(cc45)OC(C)C(C)C6=O)c(O)cc(O)c3c(O)c2C(=O)C1C (stereo not given)	2.05 µM	–
COC(=O)CNC(=O)C(C)NC(=O)C(CC(=O)OCc1ccccc1)NC(=O)OCc1ccccc1 (stereo not drawn) (Cbz-Asp(OBn)-Ala-Gly-OMe; configuration not given here)	> 100 µM	–
CCCN1C(=O)/C(=c2\sc3n(c2=O)C2C(NN=3)N(CC)C(=O)N2CC)c2ccccc21 (stereo not given)	> 59.1 µM	2.4 µM
C=C1C(=O)O[C@H]2C[C@@H](C)[C@@H]3CC(=O)OC[C@@]3(C)CC12 (stereo not given in full)	75.7 µM	–
